Hit rate of the full screen: of about 48,000 compounds, about 450 (0.94%) were called active. Inconclusive results (about 19%) are left out. The call rests on the fitted dose curve; in most records, active means well fitted inhibition curve with a large enough effect; inconclusive means small, poorly fitted or top-dose-only effect; inactive means no such curve, though single readings can be large or run the other way. The list shows a part of the results.
Test: Primary qHTS for Identification of Small Molecule Inhibitors of Huntingtin Promoter Activity; further: nearly all actives have a fitted effect of over 50% in size
Details: HEK293 HTT promoter firefly luciferase reporter (activity 0% = vehicle and -100% = no light), 24 h; series mostly up to 57.5 µM; activity change, negative = inhibition: at the top concentration
Method in brief: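 Quantitative HTS used concentration series of up to 57.5 uM final on HEK293 luciferase reporter cells, 24 h at 37 degrees C. Readout was Dual-Glo firefly luminescence.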
With `CCc1cc2c(cc(C(=O)OC)n2Cc2nc(-c3ccc(C)cc3)oc2C)s1` the “activity change, negative = inhibition” value was inactive: -6.02%.
In the case of `O=C(CSc1nc2c([nH]c3ccccc32)c(=O)n1-c1cccc(C(F)(F)F)c1)N1CCc2ccccc21`, the “activity change, negative = inhibition” value is reported as inactive: -7.07%.
With `O=C(O)c1ccc(CNCc2ccccc2Cl)s1` the “activity change, negative = inhibition” value was inactive: -11.1%.
For `CCc1ccc(C(=O)N2CCC(c3nc(-c4ccc(S(=O)(=O)N5CCCC5)cc4)no3)CC2)cc1`, the “activity change, negative = inhibition” value was inactive: -12.5%.
With `O=S(=O)(c1ccc(Br)cc1)c1nnn2c1nc(NCc1ccc3c(c1)OCO3)c1sccc12` the “activity change, negative = inhibition” value was inactive: 1.81%.
In the case of `COc1cc(Cl)c(C)cc1NC(=O)Cn1ncc2c1-c1cc(C)ccc1OC2`, the “activity change, negative = inhibition” value is reported as inactive: -16.5%.
In the case of `CCCSc1ncc(Cl)c(C(=O)Nc2c(C(=O)Nc3ccc(OC)cc3)oc3ccccc23)n1`, the “activity change, negative = inhibition” value is reported as inactive: -15.1%.
For `CCCOc1ccc(CNC(=O)CCCn2nc(C)c3sc4ccccc4c3c2=O)cc1`, the “activity change, negative = inhibition” value was inactive: -10.3%.
With `Cc1ccc(CNC(=O)CCCCCn2c(=O)c3sccc3n(CC(=O)Nc3c(C)cc(C)cc3C)c2=O)cc1` the “activity change, negative = inhibition” value was inactive: -25.9%.
For `CC1CCCN(Cc2nc3c(c(=O)n(C)c(=O)n3C)n2Cc2ccc(Cl)cc2)C1` (stereo not drawn), the “activity change, negative = inhibition” value was inactive: -4.64%.
In the case of `O=C(Nc1cc(Cl)ccc1Cl)c1cc2nc(-c3ccc4c(c3)OCO4)cc(C(F)(F)F)n2n1`, the “activity change, negative = inhibition” value is reported as inactive: -3.54%.
In the case of `Cn1nc(C(=O)NCc2ccccc2Cl)c2c1-c1ccccc1S(=O)(=O)C2`, the “activity change, negative = inhibition” value is reported as inactive: -28.1%.
In the case of `CSc1ccc(CNC(=O)C2CCN(c3nc4ccccc4nc3C(F)(F)F)CC2)cc1`, the “activity change, negative = inhibition” value is reported as inactive: -4.18%.
In the case of `Cc1cc(C)c(S(=O)(=O)N2CCC(N3CCN(Cc4ccccc4)C(=O)C3=O)CC2)c(C)c1`, the “activity change, negative = inhibition” value is reported as inactive: -16.3%.
In the case of `COc1ccc2c(c1)c1c(c(=O)n(-c3ccccc3C)c(=O)n1C)n2C`, the “activity change, negative = inhibition” value is reported as inactive: -4.08%.
With `COc1ccc(-n2ncc(C(=O)N3CCN(c4cc(C)ccc4C)CC3)c2C2CCN(C(=O)OC(C)(C)C)CC2)cc1` the “activity change, negative = inhibition” value was inactive: 2.47%.
In the case of `COc1ccc(CNCc2c(C(=O)O)c(C)n(Cc3ccccc3C)c2C)c(OC)c1`, the “activity change, negative = inhibition” value is reported as inactive: -15.6%.
With `CCN(CC)CCNC(=O)c1cn(CCOC)c(=O)c2c1c1ccccc1n2C` the “activity change, negative = inhibition” value was inactive: -8.04%.
With `CCCCNC(=O)C1CCN(c2nc3ccccc3nc2C(F)(F)F)CC1` the “activity change, negative = inhibition” value was inactive: -22.2%.
With `Cc1nnc(NC(=O)CSc2nccn2Cc2ccc(Cl)cc2)s1` the “activity change, negative = inhibition” value was inactive: -24.1%.
For `O=C(CSc1cn(CCNC(=O)c2c(F)cccc2F)c2ccccc12)Nc1ccc(F)cc1`, the “activity change, negative = inhibition” value was inactive: -27.2%.
In the case of `Cc1nc2nc(NC(=O)CC(C)C)[nH]n2c(=O)c1Cc1ccccc1`, the “activity change, negative = inhibition” value is reported as inactive: -11.9%.
With `Cc1ccc(-c2c(C(=O)N3CCN(c4cc(Cl)ccc4C)CC3)oc(=O)c3ccccc23)cc1` the “activity change, negative = inhibition” value was inactive: -8.69%.
For `COc1ccc(C)cc1NC(=O)c1cc2c(=O)n(Cc3cccnc3)ccc2nc1C`, the “activity change, negative = inhibition” value was inactive: -1.99%.
With `O=C(Nc1ccc(F)c(Cl)c1)N1CCC2(CC1)Oc1ccccc1C(=O)N2Cc1ccccc1F` the “activity change, negative = inhibition” value was inactive: -14.6%.
In the case of `CCc1nnc(SCC(=O)Nc2cc(OC)ccc2OC)nc1CC`, the “activity change, negative = inhibition” value is reported as inactive: -22.2%.
For `Cc1cccc(Cn2c(COc3ccc(Cl)cc3)nc3ccccc32)c1`, the “activity change, negative = inhibition” value was inactive: -20.7%.
With `CCOc1ccc(S(=O)(=O)N(CC(=O)NCCSc2ccc(C)cc2)c2ccccc2)cc1` the “activity change, negative = inhibition” value was inactive: -8.21%.
In the case of `CCn1nc(-c2ccccc2)c(-c2ccccc2)c(C(=O)Nc2nc(C)c(C(C)=O)s2)c1=O`, the “activity change, negative = inhibition” value is reported as inactive: -9.26%.
With `CCC(=O)N1CCc2cc(CNC(=O)c3ccc(OC)cc3)ccc21` the “activity change, negative = inhibition” value was inactive: -25.2%.
In the case of `CCCCn1cc(S(=O)(=O)c2ccc(C)c(C)c2)c(=O)c2cc(F)c(N(CC)CC)cc21`, the “activity change, negative = inhibition” value is reported as inactive: 4.75%.
In the case of `COc1ccc(-c2nc(CN3CCC(C(=O)NCCc4ccccc4)CC3)c(C)o2)cc1OC`, the “activity change, negative = inhibition” value is reported as inactive: -0.16%.
In the case of `Cc1ccc(NC(=O)CSc2nc(=O)n(Cc3ccco3)c3c2CCC3)cc1F`, the “activity change, negative = inhibition” value is reported as inactive: 0%.
In the case of `Cn1c(=O)c(=O)n(C)c2cc(N3CCCC3)c(NC(=O)c3ccccc3F)cc21`, the “activity change, negative = inhibition” value is reported as inactive: -3.59%.
In the case of `Cc1ccc2c(c1)-c1onc(C(=O)N3CCN(c4cc(Cl)ccc4C)CC3)c1CO2`, the “activity change, negative = inhibition” value is reported as inactive: -17.2%.
With `COC(=O)c1ccccc1NC(=O)c1cc(CN2CCCC2)on1` the “activity change, negative = inhibition” value was inactive: 20.5%.
With `CCC(=O)N1CCc2cc(CNC(=O)Cc3ccc(F)cc3)ccc21` the “activity change, negative = inhibition” value was inactive: 8.35%.
With `CCOC(=O)c1c(NC(=O)COc2ccc(C)cc2C(C)(C)C)sc2c1CCC(C)C2` (stereo not drawn) the “activity change, negative = inhibition” value was inactive: -6.14%.
For `Cc1c(C(=O)N2CCC(C)CC2)c(S(=O)(=O)Nc2cccc(C(F)(F)F)c2)c(C)n1C`, the “activity change, negative = inhibition” value was inactive: -38.1%.
In the case of `COc1ccc(CNC(=O)Cn2c(=O)ccc3cc(S(=O)(=O)N4CCCC4)ccc32)cc1`, the “activity change, negative = inhibition” value is reported as inactive: -13.6%.
For `Cc1ccc(Cn2c(CNC(=O)Cc3cccc(C)c3)nc3cccnc32)cc1`, the “activity change, negative = inhibition” value was inactive: -8.27%.
With `Cc1nn(S(=O)(=O)c2ccc(C(C)(C)C)cc2)c(C)c1S(=O)(=O)N1CCC(C)CC1` the “activity change, negative = inhibition” value was inactive: -9.3%.
With `COCCN1C(=O)c2oc3ccc(C)cc3c(=O)c2C12C(=O)N(C)c1ccccc12` (stereo not drawn) the “activity change, negative = inhibition” value was inactive: -8.89%.
With `CC(=O)Nc1ccc(NC(=O)C2(c3cccs3)CCOCC2)cc1` the “activity change, negative = inhibition” value was inactive: -5.56%.
For `COc1ccccc1CNC(=O)c1cnc(SC)nc1C`, the “activity change, negative = inhibition” value was inactive: 0.423%.
In the case of `COCC(=O)Nc1cccc(-c2nc3cccnc3s2)c1`, the “activity change, negative = inhibition” value is reported as inactive: 17.3%.
With `COc1ccc(NC(=O)c2sc3nc4c(c(-c5ccc(OC)cc5)c3c2N)C(=O)CC(C)(C)C4)cc1` the “activity change, negative = inhibition” value was inactive: -14%.
With `CCOC(=O)c1ccc(NC(=O)CC2Nc3ccccc3NC2=O)cc1` (stereo not drawn) the “activity change, negative = inhibition” value was inactive: -20.4%.

Source: PubChem BioAssay AID1508623 (National Center for Advancing Translational Sciences (NCATS), 2021)
